Target: T1, wild-type K2P1 without a fluorescent protein tag (human, UniProt O00180 1-336)
T1 sequence (looked up): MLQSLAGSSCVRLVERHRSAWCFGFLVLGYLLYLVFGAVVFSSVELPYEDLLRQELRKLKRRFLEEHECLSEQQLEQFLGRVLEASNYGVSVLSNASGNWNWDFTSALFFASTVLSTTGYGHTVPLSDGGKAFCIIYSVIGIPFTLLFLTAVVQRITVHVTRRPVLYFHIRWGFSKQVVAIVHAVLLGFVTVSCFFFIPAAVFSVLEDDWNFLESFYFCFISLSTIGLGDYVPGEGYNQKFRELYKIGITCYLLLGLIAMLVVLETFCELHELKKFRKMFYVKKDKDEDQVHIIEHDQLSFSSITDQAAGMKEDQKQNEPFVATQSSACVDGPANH
Assay: single-particle photobleaching

B1: GFP-SUMO1 (natural protein)
chain: not shown
  stoichiometry N: 2 SUMO monomers per homodimeric channel

— paper PMC3876883 (Science signaling, 2012)
